PubChem BioAssay AID1671188 (National Center for Advancing Translational Sciences (NCATS), 2021)
About 250 (0.25%) of roughly 100,000 compounds were called active. The inconclusive results got no clear call from the source; some entries with a clear call stand among them for comparison. Calls come from the whole dose curve; as a rule, active = well fitted inhibition curve with a large enough effect; inconclusive = small, poorly fitted or top-dose-only effect; inactive = flat fitted curve, though single readings scatter. Potencies of inconclusive entries are left out as doubtful fits.

These compounds were tested against Alanine aminotransferase 2 (Homo sapiens) (UniProt Q8TD30) (assay: Primary qHTS assay for inhibitors of Glutamate pyruvate transaminase 2 (GPT2)). Settings: Recombinant GPT2, coupled pyruvate oxidase/HRP Amplex Red fluorescence; series mostly up to 57.7 µM.
UniProt Q8TD30, sequence (Q8TD30 whole entry, looked up): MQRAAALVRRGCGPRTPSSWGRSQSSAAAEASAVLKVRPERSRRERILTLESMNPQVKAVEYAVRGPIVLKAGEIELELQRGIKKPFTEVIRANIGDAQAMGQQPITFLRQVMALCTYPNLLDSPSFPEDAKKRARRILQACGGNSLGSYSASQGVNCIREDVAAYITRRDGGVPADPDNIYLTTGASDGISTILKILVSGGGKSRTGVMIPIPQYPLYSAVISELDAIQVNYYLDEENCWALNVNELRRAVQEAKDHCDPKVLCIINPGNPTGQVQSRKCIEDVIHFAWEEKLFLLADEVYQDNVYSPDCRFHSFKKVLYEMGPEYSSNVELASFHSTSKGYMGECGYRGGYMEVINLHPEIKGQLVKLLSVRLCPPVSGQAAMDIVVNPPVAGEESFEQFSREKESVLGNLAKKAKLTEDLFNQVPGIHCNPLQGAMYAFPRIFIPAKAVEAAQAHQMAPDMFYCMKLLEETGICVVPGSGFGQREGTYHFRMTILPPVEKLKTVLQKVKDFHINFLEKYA
In short: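 Fluorescence of coupled pyruvate oxidase/HRP/Amplex Red system (50uM Amplex, 30 min, dark) reports pyruvate formed by GPT2. Enzyme reaction: 10ng/uL GPT2, 2mM L-alanine, 250uM a-KG, 30 min room temperature, pH 7.5; 50uM AOA control.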
Note: nearly all actives have a fitted effect of over 60% in size.
Potency is the fitted concentration of half-maximal effect; tags give direction and shape of the fitted curve.

Compound | Potency
O=C(NCc1ccco1)C1COC2(CCN(C(=O)c3ccco3)CC2)N1C(=O)c1ccc(F)cc1 (stereo not given) | inactive
CC(C)(C)CC(=O)N[C@H]1C[C@@H](Cc2cc(CN3CCN(c4ccccc4)CC3)on2)C1(C)C | inconclusive [inhibitor, single point]
COc1ccc(-c2cc(N3CCCN(C(=O)Cc4cccc(F)c4)CC3)n[nH]2)cc1 | inconclusive [inhibitor, single point]
Cc1ccccc1C(=O)N1CC(c2nnc(C(C)C)o2)C2(CCOCC2)C1 (stereo not given) | inconclusive [inhibitor, single point]
CC(C)Oc1ccc(C(=O)NC2CCN(c3cnn(C)c(=O)c3)CC2)cc1 | inactive
CO[C@H]1C=CO[C@@]2(C)Oc3c(C)c(O)c4c(O)c(c(C=NN5CCN(C)CC5)c(O)c4c3C2=O)NC(=O)C(C)=CC=C[C@H](C)[C@H](O)[C@@H](C)[C@@H](O)[C@@H](C)[C@H](OC(C)=O)[C@H]1C | inconclusive [inhibitor, single point]
CC(=O)Nc1nc2c(s1)C[C@@H]1[C@](C)(CO)[C@H](O)CC[C@@]1(C)[C@@H]2CC(=O)NC1CC1 | inconclusive [inhibitor, single point]
CCCCSc1ncc(CN2CCCC2c2ccc(C(N)=O)s2)cn1 (stereo not given) | inconclusive [inhibitor, single point]
O=C1NC2(CN(Cc3ccccc3)C2)Oc2ccccc21 | inactive
COc1ccc(CCC(=O)N2CCN(c3nnc4ccc(Cl)cn34)CC2)cc1 | inconclusive [inhibitor, single point]
Cc1c(-c2ccccc2F)[nH]c2ccc(CNC(=O)CCc3cnccn3)cc12 | inconclusive [inhibitor, single point]
CCCCN1C(=O)[C@@H]2C[C@@H](O)CN2C2(CN(Cc3cccs3)C2)C1=O | inconclusive [inhibitor, single point]
O=c1cc(-c2ccccc2)oc2ccccc12 | inconclusive [inhibitor, single point]
CCC(=O)N1Cc2ccccc2CC2(CCCN(CC3CCOCC3)C2)C1 (stereo not given) | inconclusive [inhibitor, partial curve, poor fit]
CCC(C)(C)C(=O)NC1CCN(c2cnn(CC3CC3)c(=O)c2)CC1 | inconclusive [inhibitor, single point]
CNC(=O)N1CCC(C2CCN(S(=O)(=O)c3ccc(F)cc3)C2)CC1 (stereo not given) | inconclusive [inhibitor, partial curve, poor fit]
CCS(=O)(=O)Nc1ccc(C)n(CC(=O)NCc2ccccc2C)c1=O | inconclusive [inhibitor, partial curve, poor fit]
COCCN1Cc2nc(-c3ccc(OC)c(F)c3)ccc2OCC1=O | inactive
O=C(O)Cn1nnc(-c2ccc(CN(CCCCOc3ccc(CN4CCCC4)cc3)CCc3ccccc3)cc2)n1 | inconclusive [inhibitor, single point]
Cc1cccc(C(=O)N2C[C@@H](COc3ccccc3)[C@H](C(N)=O)C2)n1 | inconclusive [inhibitor, single point]

Compound | Potency
C[C@]1(CO)[C@H]2Cc3sc(-c4ccccc4)nc3[C@@H](CC(=O)O)[C@]2(C)CC[C@H]1O | inactive
CNC(=O)[C@@H]1C[C@H](Oc2ccccc2)CN1C(=O)C1(C)CCCCC1 | inconclusive [inhibitor, single point]
CC(C)C[C@@H]1N[C@H](C(=O)N2CCCC2)Cc2c[nH]c3cccc1c23 | inconclusive [inhibitor, full curve]
Cc1noc(-c2nc(-c3ccc4c(c3)OCO4)no2)n1 | inactive
O=C(NCc1ccco1)C1CC(c2ccccc2)CN(C(=O)Nc2ccc(Cl)cc2)C1 (stereo not given) | inconclusive [inhibitor, single point]
O=C(NCc1nnc2ccc(-c3ccccc3)nn12)c1ccc(F)cc1 | inactive
Cc1cccc(OCC(=O)N2CCC3(CC2)NC(=O)N(c2ccc(F)cc2)N3)c1 | inconclusive [inhibitor, partial curve, poor fit]
COc1ccc(CCNc2ncnc3c2CN(c2cccc(C)c2)C(=O)CN3C)cc1 | inconclusive [inhibitor, single point]
CCCn1c(C)cnc1CC1CCCN(S(=O)(=O)c2cn(C)cn2)C1 (stereo not given) | inconclusive [inhibitor, partial curve, poor fit]
COc1cccc(CNC(=O)c2cc(-c3ccc(F)cc3)nc3c2cnn3C)c1 | inactive
Cc1ccc(-c2c(C(=O)N3CCOCC3)nc3sccn23)cc1 | inactive
COc1ccc(CN2CCC(N3CCNC3=O)CC2)cc1 | inconclusive [inhibitor, single point]
O=C(Cc1cccnc1)N1CCC(N2CC(OCC3CC3)C23CCCCC3)CC1 (stereo not given) | inconclusive [inhibitor, single point]
CC(C)n1cnc2c(Nc3cccc(Cl)c3)nc(NCCO)nc21 | inconclusive [inhibitor, single point]
Cc1noc2c(NC(C)C)cc(-c3cccnc3)nc12 | inconclusive [inhibitor, single point]
Cc1ccccc1C(=O)N1CCCC2(C1)Nc1cccnc1NC2=NC1CCCC1 (stereo not given) | inconclusive [inhibitor, partial curve]
CCOc1cc(=O)n2c(c1C(=O)NCc1ccccc1Cl)CCCC2 | inconclusive [inhibitor, single point]
COCc1cc(CN(C)C(=O)CCc2cc3n(n2)CCNC3)[nH]n1 | inconclusive [inhibitor, single point]
O=C1c2cc(N3CCOCC3)nc(-c3cccc(CO)c3)c2CN1Cc1ccccc1 | inactive
CCc1nc2c(=O)n(CC(=O)N3CCC(Cc4ccccc4)CC3)nc(C)c2s1 | inconclusive [inhibitor, single point]
